According to patent US9255256B2, “Expression of functional cytochorome P450 monooxygenase system in enterobacteria” (priority 1996, dated 2016):

System: CYP3A4
Experiment: Testosterone 6β-hydroxylase assay, bacterial membrane fractions
Format: biochemical, human
Details: 30 mM MgCl2, co-expressed with reductase, two plasmid system

B1: 17α-CYP3A4: CYP3A4 with N-terminal region modified according to published procedures (Gillam et al 1993) (protein)
chain: MALIPDLAMETWLLLAVSLVLLYLYGTHSHGLFKKLGIPGPTPLPFLGNILSYHKGFCMFDMECHKKYGKVWGFYDGQQPVLAITDPDMIKTVLVKECYSVFTNRRPFGPVGFMKSAISIAEDEEWKRLRSLLSPTFTSGKLKEMVPIIAQYGDVLVRNLRREAETGKPVTLKDVFGAYSMDVITSTSFGVNIDSLNNPQDPFVENTKKLLRFDFLDPFFLSITVFPFLIPILEVLNICVFPREVTNFLRKSVKRMKESRLEDTQKHRVDFLQLMIDSQNSKETESHKALSDLELVAQSIIFIFAGYETTSSVLSFIMYELATHPDVQQKLQEEIDAVLPNKAPPTYDTVLQMEYLDMVVNETLRLFPIAMRLERVCKKDVEINGMFIPKGVVVMIPSYALHRDPKYWTEPEKFLPERFSKKNKDNIDPYIYTPFGSGPRNCIGMRFALMNMKLALIRVLQNFSFKPCKETQIPLKLSLGGLLQPEKPVVLKVESRDGTVSGA
- Testosterone 6β-hydroxylase: 4.9 ± 0.3 nmol formed per minute per nmol CYP3A4
